Measured values published in the supplement of paper PMC12217912.
The other results are listed elsewhere or left out. The full chains were built here from the parent and the listed change. Values near 0.05 are background.

B1: TEV protease; numbered along this chain (parent)
chain: MGESLFKGPRDYNPISSSICHLTNESDGHTTSLYGIGFGPFIITNKHLFRRNNGTLVVQSLHGVFKVKDTTTLQQHLVDGRDMIIIRMPKDFPPFPQKLKFREPQREERICLVTTNFQTKSMSSMVSDTSCTFPSGDGIFWKHWIQTKDGQCGSPLVSTRDGFIVGIHSASNFTNTNNYFTSVPKNFMELLTNQEAQQWVSGWRLNADSVLWGGHKVFMVKPEEPFQPVKEATQL

Variants of: B1
Experiment: raw area under fraction-flipped curve 0-4 h after induction (AUC4h, not background-subtracted), DNA-recorder readout of cleavage of the substrate (dimensionless); higher = more cleavage of the substrate by the protease variant
Settings: temperature: 34 °C; time window: 0-4 h after rhamnose induction
Method: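 In vivo DNA recorder in E. coli TOP10(DE3) ΔrhaA at 34 °C. Each TEVp single-site mutant (parent TEVp 0) is paired with a single-site variant of the 7-mer TEVs (canonical ENLYFQ|S). The substrate sits between flexible linkers in a Bxb1-sfGFP-TEVs-SsrA fusion, so cleavage stabilises Bxb1 and speeds flipping of a recombination array, read by NGS. The value is the raw area under the fraction-flipped curve over 0-4 h after rhamnose induction (AUC4h), with ≥20 reads per time point. It is not background-subtracted; inactive controls average about 0.047.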
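Also: Bxb1 expression induced with 0.2% (w/v) L-rhamnose at OD600 near 0.5, cultures sampled hourly, flipped fraction per protease–substrate barcode pair counted by paired-end Illumina sequencing.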

Row | Variant | area with substrate ENLYFDS | area with substrate ENLYFHS | area with substrate ENLYFIS | area with substrate ENLYFPS | area with substrate ENLYFWS | area with substrate ENLYFFS | area with substrate ENLYFKS | area with substrate ENLYFLS | area with substrate ENLYFNS | area with substrate ENLYFTS
1 | V58E | 0.0499 | 0.0415 | 0.0464 | – | – | – | – | – | – | –
2 | V58Q | 0.0527 | 0.0418 | – | 0.0521 | 0.048 | – | – | – | – | –
3 | K66C | 0.0047 | – | 0.0518 | 0.0608 | 0.0557 | 0.0683 | 0.0543 | 0.0489 | 0.0491 | 0.0597
4 | T71D | 0.0542 | – | – | 0.0661 | – | 0.0905 | – | – | – | –
5 | V78T | 0.167 | – | 0.0535 | 0.0282 | – | 0.0754 | – | – | – | 0.0572
6 | M83S | 0.0544 | 0.0558 | 0.0508 | 0.0562 | 0.06 | 0.0674 | – | 0.0647 | 0.0684 | 0.0429
7 | M83V | 0.0565 | – | 0.0549 | 0.0551 | – | – | 0.065 | – | 0.0703 | 0.0665
8 | R87P | 0.0571 | – | – | 0.049 | – | 0.0499 | 0.0816 | – | 0.0558 | 0.0504
9 | P96G | 0.0666 | 0.0601 | 0.0548 | 0.058 | 0.0866 | – | 0.0677 | – | – | 0.0901
10 | T115P | 0.059 | – | 0.0543 | 0.0999 | – | – | – | – | – | –
11 | M122C | 0.0542 | 0.0501 | 0.0592 | 0.052 | 0.0695 | 0.0738 | 0.0691 | 0.0649 | 0.0605 | 0.0595
12 | G138C | 0.0593 | – | – | – | – | – | 0.0516 | – | – | –
13 | I145W | 0.0461 | 0.0593 | 0.0428 | 0.0561 | – | 0.0566 | 0.0681 | 0.0537 | – | 0.0529
14 | T147D | 0.0597 | – | – | 0.046 | – | – | – | – | – | –
15 | G153W | 0.054 | – | 0.0597 | – | 0.0737 | 0.0525 | 0.0484 | – | – | –
16 | S158R | 0.0384 | – | – | 0.0388 | 0.04 | 0.0619 | – | – | 0.0362 | –
17 | N172F | 0.0535 | 0.0673 | 0.0442 | – | 0.0603 | – | – | 0.0552 | – | –
18 | N177K | 0.0715 | 0.0657 | – | 0.0575 | – | 0.0561 | – | – | 0.0567 | 0.0494
19 | Y179N | 0.0897 | – | 0.0579 | – | – | – | 0.0622 | 0.0624 | 0.0482 | 0.0584
20 | N186Q | 0.0601 | – | 0.0462 | 0.058 | – | – | 0.0677 | – | – | 0.0539

Row | Variant | area with substrate ENLYFDS | area with substrate ENLYFHS | area with substrate ENLYFIS | area with substrate ENLYFPS | area with substrate ENLYFWS | area with substrate ENLYFFS | area with substrate ENLYFKS | area with substrate ENLYFLS | area with substrate ENLYFNS | area with substrate ENLYFTS
21 | Q197S | 0.0614 | 0.054 | 0.0509 | 0.0665 | 0.0577 | 0.0612 | – | – | 0.062 | 0.0544
22 | N206E | 0.0495 | 0.0593 | 0.0571 | – | – | 0.0652 | – | – | 0.0648 | 0.0666
23 | N206K | 0.0396 | – | 0.0577 | 0.0878 | – | – | – | – | – | –
24 | L211S | 0.0571 | – | – | 0.0742 | – | – | 0.0422 | – | – | –
25 | G214Q | 0.0528 | – | – | – | – | – | – | – | – | 0.0838
26 | V217R | 0.0676 | 0.047 | 0.0704 | 0.0564 | – | 0.07 | 0.0858 | – | 0.0539 | 0.065
27 | V220T | 0.0568 | – | – | – | – | – | – | – | 0.0787 | 0.0561
28 | L235S | 0.0555 | 0.0465 | 0.0639 | 0.0612 | 0.0735 | 0.0756 | – | – | – | –
29 | K7I | – | 0.0533 | 0.0559 | – | – | 0.0884 | 0.067 | – | 0.0633 | –
30 | T30V | – | 0.0672 | 0.0464 | 0.0605 | 0.0587 | 0.0577 | – | 0.0595 | 0.0696 | 0.0619
31 | Y34E | – | – | 0.0573 | 0.0628 | – | – | 0.0299 | – | 0.0637 | –
32 | F38D | – | – | – | – | – | – | – | – | – | 0.0428
33 | R51G | – | – | 0.0633 | – | – | 0.0645 | – | 0.0667 | – | 0.0712
34 | T71H | – | 0.0568 | 0.0505 | 0.0665 | 0.062 | – | – | – | – | 0.0555
35 | T71I | – | – | – | 0.0593 | 0.04 | – | 0.0556 | – | – | 0.0469
36 | M83P | – | 0.0497 | – | 0.0451 | – | 0.155 | 0.0758 | – | – | 0.0437
37 | I84P | – | – | – | – | – | 0.0483 | – | – | – | –
38 | I86Y | – | 0.0907 | 0.0548 | 0.0562 | – | 0.0596 | – | – | 0.0637 | –
39 | M88K | – | 0.0419 | – | – | 0.0561 | 0.0331 | – | – | 0.0539 | –
40 | P93F | – | 0.0411 | 0.0469 | – | 0.0432 | 0.0674 | 0.0499 | – | 0.0825 | 0.051

Same assay, conditions: temperature: 34 °C; time window: 0-4 h after rhamnose induction

Row | Variant | area with substrate ENLYFYS | area with substrate ENLYFES | area with substrate ENLYFGS | area with substrate ENLYFMS | area with substrate ENLYFRS | area with substrate ENLYFSS | area with substrate ENLYFVS
41 | K66C | 0.0543 | – | – | – | – | – | –
42 | T71D | – | 0.0605 | 0.0663 | 0.0613 | 0.043 | – | –
43 | V78T | 0.0903 | – | 0.0508 | 0.0656 | – | – | –
44 | M83S | 0.0516 | 0.0636 | 0.0649 | 0.0535 | – | – | –
45 | M83V | 0.0538 | 0.0507 | – | 0.0641 | – | 0.0498 | 0.0738
46 | R87P | – | – | 0.0486 | 0.0533 | – | – | –
47 | P96G | – | 0.0624 | – | 0.0745 | – | – | –
48 | T115P | 0.044 | – | 0.0548 | – | 0.0546 | 0.0638 | 0.0508
49 | M122C | 0.0626 | – | – | 0.058 | 0.0557 | 0.0552 | 0.0645
50 | G138C | – | – | – | – | 0.0594 | – | –
51 | I145W | 0.0564 | 0.057 | – | – | 0.0525 | 0.0555 | 0.0589
52 | T147D | – | – | – | – | 0.0574 | 0.0716 | –
53 | G153W | – | – | – | – | 0.0395 | – | –
54 | S158R | – | 0.0548 | 0.0606 | 0.0424 | 0.0594 | – | 0.0483
55 | N172F | – | – | – | 0.0666 | 0.0574 | 0.0471 | –
56 | N177K | 0.0573 | – | 0.0537 | – | – | – | –
57 | Y179N | – | 0.0615 | 0.0532 | – | – | 0.0539 | –
58 | N186Q | – | 0.0639 | 0.0666 | – | – | – | –
59 | Q197S | 0.0519 | 0.0601 | 0.0575 | 0.0684 | – | – | 0.059

Row | Variant | area with substrate ENLYFYS | area with substrate ENLYFES | area with substrate ENLYFGS | area with substrate ENLYFMS | area with substrate ENLYFRS | area with substrate ENLYFSS | area with substrate ENLYFVS
60 | N206E | 0.0445 | – | 0.0643 | 0.0699 | 0.0657 | 0.0667 | 0.056
61 | N206K | – | – | – | 0.0531 | – | – | 0.0536
62 | L211S | 0.0552 | – | – | 0.0701 | – | – | –
63 | G214Q | 0.0644 | – | – | – | – | – | –
64 | V217R | – | 0.0689 | 0.0668 | 0.0684 | 0.0654 | 0.0625 | –
65 | V220T | – | 0.0593 | – | – | – | 0.0496 | –
66 | L235S | – | 0.108 | 0.0907 | – | – | 0.0673 | –
67 | K7I | – | 0.0573 | – | 0.0728 | – | – | 0.0599
68 | T30V | 0.0511 | 0.0672 | 0.0388 | – | – | – | 0.0722
69 | Y34E | – | 0.0575 | – | – | – | 0.0554 | –
70 | F38D | – | 0.0277 | – | – | 0.0394 | – | –
71 | R51G | – | 0.0614 | – | – | 0.0526 | 0.054 | –
72 | T71H | – | 0.0641 | – | – | – | 0.0625 | –
73 | T71I | – | 0.0528 | – | – | 0.0457 | 0.065 | –
74 | M83P | 0.0504 | 0.0499 | 0.0518 | 0.0501 | – | – | 0.0459
75 | I84P | 0.028 | 0.0247 | – | 0.0337 | 0.031 | 0.0257 | –
76 | I86Y | 0.0635 | 0.0585 | 0.0589 | – | – | 0.0546 | –
77 | M88K | – | 0.0451 | 0.047 | 0.0577 | 0.0533 | 0.0352 | 0.0881
78 | P93F | – | 0.0552 | – | – | – | – | –
